The campaign covered roughly 360,000 compounds. About 16,000 (4.4%) were called active. Inconclusive results, whose numbers are uncertain, are shown with a selection of clear calls. The call rests on the fitted dose curve; in most records, active means well fitted inhibition curve with a large enough effect; inconclusive means small, poorly fitted or top-dose-only effect; inactive means no such curve, though single readings can be large or run the other way. Potencies of inconclusive entries are doubtful fits and often do not repeat.
The molecules below were run against Bromodomain adjacent to zinc finger domain protein 2B (Homo sapiens) (UniProt Q9UIF8) (assay: qHTS Assay for Inhibitors of BAZ2B). Details: AlphaScreen BAZ2B-H3K14Ac peptide displacement; activity change, negative = inhibition: at 114 µM (top of the series).
Sequence of UniProt Q9UIF8 (Q9UIF8 whole entry, looked up, the tested form may be a part): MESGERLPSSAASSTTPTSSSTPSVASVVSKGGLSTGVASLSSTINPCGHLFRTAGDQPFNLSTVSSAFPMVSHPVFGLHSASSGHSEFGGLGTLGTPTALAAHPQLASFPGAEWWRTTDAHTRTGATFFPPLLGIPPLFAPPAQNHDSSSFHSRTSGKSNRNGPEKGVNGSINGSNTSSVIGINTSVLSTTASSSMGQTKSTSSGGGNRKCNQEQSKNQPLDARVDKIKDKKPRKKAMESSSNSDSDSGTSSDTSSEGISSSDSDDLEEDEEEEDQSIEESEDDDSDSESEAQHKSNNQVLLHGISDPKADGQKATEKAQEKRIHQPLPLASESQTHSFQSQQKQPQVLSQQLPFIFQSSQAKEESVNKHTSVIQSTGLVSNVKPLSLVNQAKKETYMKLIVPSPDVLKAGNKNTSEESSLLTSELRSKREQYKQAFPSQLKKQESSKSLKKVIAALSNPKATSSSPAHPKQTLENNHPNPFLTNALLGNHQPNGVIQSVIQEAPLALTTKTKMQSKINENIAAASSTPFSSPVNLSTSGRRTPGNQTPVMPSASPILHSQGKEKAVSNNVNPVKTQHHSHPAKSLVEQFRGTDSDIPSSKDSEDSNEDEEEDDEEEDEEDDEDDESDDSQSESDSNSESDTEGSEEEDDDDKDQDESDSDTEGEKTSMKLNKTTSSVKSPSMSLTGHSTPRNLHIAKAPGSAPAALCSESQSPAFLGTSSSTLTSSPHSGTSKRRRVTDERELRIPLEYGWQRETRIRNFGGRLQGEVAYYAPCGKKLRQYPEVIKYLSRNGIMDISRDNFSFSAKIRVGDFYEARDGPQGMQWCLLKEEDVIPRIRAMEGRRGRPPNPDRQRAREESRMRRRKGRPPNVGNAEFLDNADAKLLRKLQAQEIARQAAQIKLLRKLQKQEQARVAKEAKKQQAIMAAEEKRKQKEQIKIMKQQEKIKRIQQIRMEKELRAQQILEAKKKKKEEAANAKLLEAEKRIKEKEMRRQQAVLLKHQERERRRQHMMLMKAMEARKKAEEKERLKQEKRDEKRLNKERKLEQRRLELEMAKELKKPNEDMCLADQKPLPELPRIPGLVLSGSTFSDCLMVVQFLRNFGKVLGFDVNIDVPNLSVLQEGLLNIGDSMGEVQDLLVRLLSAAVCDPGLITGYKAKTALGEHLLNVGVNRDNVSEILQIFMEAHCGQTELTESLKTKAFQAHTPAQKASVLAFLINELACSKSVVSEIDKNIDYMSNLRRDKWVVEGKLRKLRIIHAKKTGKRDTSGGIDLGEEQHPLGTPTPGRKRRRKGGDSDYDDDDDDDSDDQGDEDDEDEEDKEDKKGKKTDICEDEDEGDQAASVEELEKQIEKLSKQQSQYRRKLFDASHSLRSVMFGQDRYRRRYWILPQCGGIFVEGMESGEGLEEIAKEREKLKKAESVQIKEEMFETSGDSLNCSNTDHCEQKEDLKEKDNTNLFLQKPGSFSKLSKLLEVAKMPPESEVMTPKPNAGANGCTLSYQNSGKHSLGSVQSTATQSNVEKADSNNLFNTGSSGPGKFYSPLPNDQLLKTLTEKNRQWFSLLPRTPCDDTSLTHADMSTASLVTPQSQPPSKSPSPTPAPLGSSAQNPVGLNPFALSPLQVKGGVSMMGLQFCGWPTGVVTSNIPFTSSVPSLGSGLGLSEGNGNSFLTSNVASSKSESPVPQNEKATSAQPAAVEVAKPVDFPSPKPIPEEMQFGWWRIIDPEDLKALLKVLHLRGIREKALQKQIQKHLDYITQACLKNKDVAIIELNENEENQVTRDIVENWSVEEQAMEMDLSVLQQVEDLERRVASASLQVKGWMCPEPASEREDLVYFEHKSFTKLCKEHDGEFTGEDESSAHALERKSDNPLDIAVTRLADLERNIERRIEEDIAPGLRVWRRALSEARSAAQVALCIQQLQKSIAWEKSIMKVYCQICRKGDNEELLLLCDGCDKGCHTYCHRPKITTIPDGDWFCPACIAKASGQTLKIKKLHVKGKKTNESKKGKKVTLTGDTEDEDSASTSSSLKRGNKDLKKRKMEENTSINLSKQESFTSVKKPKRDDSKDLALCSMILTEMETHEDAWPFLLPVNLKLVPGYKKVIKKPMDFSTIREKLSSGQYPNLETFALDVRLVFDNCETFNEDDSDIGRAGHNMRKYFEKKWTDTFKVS
Summary of the method: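 In this displacement format the biotinylated H3(5-23) peptide acetylated at Lys14 serves as ligand at 50 nM, with BAZ2B at 50 nM in PBS pH 7.4 containing 0.01% Tween-20. Donor and acceptor beads are 10 ug/mL final.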
For COc1ccc(/C=C/CN2CCC(n3nccc3NC(=O)C3CCCC3)CC2)cc1, the “activity change, negative = inhibition” value was inactive: -4.82%.
O=C(O)c1cc2ccc3cccc4ccc(c1)c2c34 was tested, and the Potency was inconclusive: 89.1 µM [inhibitor, single point].
For Cc1ccc(OCCC(=O)OC(C)C(=O)Nc2ccc(Cl)cn2)cc1 (stereo not drawn), the “activity change, negative = inhibition” value was inactive: 17.5%.
In the case of O=C(CN(c1ccccc1)S(=O)(=O)c1ccccc1)N/N=C/c1ccco1, the “activity change, negative = inhibition” value was inactive: -8.24%.
For COc1cc(NS(=O)(=O)c2cc3c(cc2C)n(C)c(=O)c(=O)n3C)cc(OC)c1, the “activity change, negative = inhibition” value was inactive: -3.55%.
Cc1ccc(OCCNC(=O)c2ccccc2OCc2c(C)noc2C)cc1 was tested, and the “activity change, negative = inhibition” value was inactive: -1.88%.
CCCCc1cc(=O)oc2cc(C)cc(OC(C)C(=O)NCc3ccccn3)c12 (stereo not drawn) was tested, and the “activity change, negative = inhibition” value was inactive: -16.6%.
CC1CCCN(C(=O)c2ccc3c(c2NCCO)C(=O)c2ccccc2C3=O)C1 (stereo not drawn) was tested, and the Potency was active: 39.8 µM.
For CC1CN(Cc2c(O)ccc3c2oc(=O)c2ccccc23)CC(C)O1 (stereo not drawn), the Potency was active: 3.98 µM.
CC1=C/C(=N\OS(=O)(=O)c2ccccc2)C=CC1=O was tested, and the Potency was inconclusive: 44.7 µM [inhibitor, partial curve].
In the case of O=C(Cc1cccs1)Nc1ccc(N2CCOCC2)cc1, the Potency was inconclusive: 89.1 µM [inhibitor, single point].
COc1ccc(C(=O)NC2CCCc3ccccc32)cc1S(=O)(=O)N1CCOCC1 (stereo not drawn) was tested, and the “activity change, negative = inhibition” value was inactive: -4.17%.
In the case of Fc1ccc(Nc2c(-c3c[nH]c4ccccc34)nc3ccccn23)cc1, the Potency was inconclusive: 3.55 µM [inhibitor, full curve].
Cc1ccc(C(=O)Nc2nnc(S(=O)(=O)N3CCCc4ccccc43)s2)cc1 was tested, and the “activity change, negative = inhibition” value was inactive: -9.93%.
With O=c1[nH]c2ccc(Cl)cc2c(-c2ccccc2)c1SC(=S)N1CCCCC1 the Potency was inconclusive: 79.4 µM [inhibitor, single point].
With COc1ccccc1C(=O)Nc1ccccc1C(=O)NCc1ccco1 the Potency was inconclusive: 89.1 µM [inhibitor, partial curve].
For O=C(CS(=O)(=O)c1ccc(F)cc1)Nc1nccs1, the Potency was inconclusive: 89.1 µM [inhibitor, single point].
With Cc1cc(C)cc(NC(=O)CCc2nc3sc4c(c3c(=O)[nH]2)CCCC4)c1 the “activity change, negative = inhibition” value was inactive: -38.1%.
C/C(=N\NC(=O)c1nnn(-c2nonc2N)c1CN(C)c1ccccc1)c1ccccc1O was tested, and the Potency was active: 2.24 µM.
With Cn1c(-c2ccccc2)cnc1SCC(=O)N1CCCc2ccccc21 the Potency was active: 44.7 µM.
For COc1ccc(Cl)cc1NC(=O)C1CCN(S(=O)(=O)c2ccc3c(c2)CCCN3C(=O)C2CCC2)CC1, the “activity change, negative = inhibition” value was inactive: 3.6%.
With Cn1c(C(=O)O)cc2cc(F)ccc21 the Potency was inconclusive: 44.7 µM [inhibitor, partial curve].
With CC(=O)Nc1cccc(NC(=O)c2ccc3c(c2)CCN3S(=O)(=O)c2ccccc2)c1 the “activity change, negative = inhibition” value was inactive: -11.9% [at 57.1 µM].
In the case of Cc1ccc(NC(=O)N2CCN3CCCCC3C2)cc1F (stereo not drawn), the “activity change, negative = inhibition” value was inactive: -0.642%.
Cc1ccsc1CN(C(=O)c1ccc(Br)cc1)C1CCS(=O)(=O)C1 (stereo not drawn) was tested, and the “activity change, negative = inhibition” value was inactive: -11.6%.
For Cc1c2cn[nH]c(=O)c2c(C)n1-c1ccccc1, the Potency was inconclusive: 79.4 µM [inhibitor, single point].
COCCNC(=S)N(CCc1c(C)[nH]c2ccc(F)cc12)Cc1cccnc1 was tested, and the Potency was inconclusive: 56.2 µM [inhibitor, partial curve].
For COc1cc(S(=O)(=O)NCc2ccccn2)ccc1Cl, the “activity change, negative = inhibition” value was inactive: -1.86%.
With C/C(CCc1oc2c(Br)cc(Br)cc2c1-c1ccc(C)o1)=N\O the Potency was inconclusive: 44.7 µM [inhibitor, partial curve].
In the case of COc1ccccc1CCNC(=O)C(=O)NCC(c1cccs1)S(=O)(=O)c1ccc(F)cc1 (stereo not drawn), the “activity change, negative = inhibition” value was inactive: 2.61%.
With CCCc1cc(=O)[nH]c(SCC(=O)N(Cc2ccccc2)C(C)C)n1 the Potency was inconclusive: 89.1 µM [inhibitor, single point].
In the case of CN(C)c1ccc(NC(=O)CSc2nc3ccccc3c(=O)n2C2CCCCC2)cc1, the Potency was active: 10 µM.
In the case of COC(=O)c1sc(NC(=O)c2ccc([N+](=O)[O-])o2)c(C#N)c1C, the Potency was inconclusive: 39.8 µM [inhibitor, partial curve].
In the case of CC(C)NC(=S)N/N=C/c1ccc2c(c1)OCCO2, the Potency was inconclusive: 79.4 µM [inhibitor, single point].
CCN1C(=O)/C(=C\C=C2/C=CC=CN2CC)SC1=S was tested, and the Potency was active: 22.4 µM.
For COc1cc(/C=N/N2CCN(c3ccccc3OC)CC2)ccc1OC(C)=O, the Potency was inconclusive: 79.4 µM [inhibitor, single point].
COCCSc1nnc(NC(=O)C2CC(=O)N(C3CCCC3)C2)s1 (stereo not drawn) was tested, and the “activity change, negative = inhibition” value was inactive: 0.874%.
CCC(=O)c1ccc(NC(C)=O)cc1O was tested, and the “activity change, negative = inhibition” value was inactive: -1.04%.
With O=C1NN(c2cccc(Br)c2)C(=O)/C1=C/c1cccs1 the Potency was inconclusive: 63.1 µM [inhibitor, partial curve, poor fit].
With CCN1C(=O)[C@H]2[C@@H](c3ccc(-c4cccc(Cl)c4)cc3)N[C@@](C)(C(=O)OC)[C@H]2C1=O the “activity change, negative = inhibition” value was inactive: -4.6%.
For O=C(Nc1ccc(Nc2ccccc2)cc1)C(Cl)(Cl)Cl, the Potency was inconclusive: 79.4 µM [inhibitor, single point].
With CCNC1=C(Cl)C(=O)c2ccccc2C1=O the Potency was active: 35.5 µM.
S=c1[nH]nc(-c2ccco2)n1/N=C/C=C/c1ccco1 was tested, and the Potency was inconclusive: 89.1 µM [inhibitor, single point].
Cc1ccc(CNC(=O)C2CCCCN2S(=O)(=O)c2ccccc2)cc1 (stereo not drawn) was tested, and the “activity change, negative = inhibition” value was inactive: 4.66%.
With Cc1ccc(-c2nc3nc(C)cc(N4CCN(c5cccc(C)c5)C(C)C4)n3n2)cc1 (stereo not drawn) the Potency was inconclusive: 70.8 µM [inhibitor, single point].
With Cc1nc(SCC(=O)Nc2nc3ccccc3s2)n[nH]1 the “activity change, negative = inhibition” value was inactive: -1.38%.
For Cc1cc(F)ccc1NS(=O)(=O)c1c(C(=O)N2CCOCC2)c(C)n(C)c1C, the “activity change, negative = inhibition” value was inactive: -13.1% [at 57.1 µM].
For Cc1cc(C)c2nc(N3C(=O)C(O)=C(C(=O)c4ccco4)C3c3ccc(O)cc3)sc2c1 (stereo not drawn), the Potency was inconclusive: 79.4 µM [inhibitor, single point].
For COC(=O)c1ccc(CSc2ccc3nnc(-c4cccc(F)c4)n3n2)o1, the “activity change, negative = inhibition” value was inactive: -2.37%.
For CCn1c(=O)n(CC(=O)N2CC(C)CC(C)C2)c(=O)c2ccccc21 (stereo not drawn), the “activity change, negative = inhibition” value was inactive: 9.7%.
In the case of COc1c(O)ccc2c1CN1CCc3cc4c(cc3C1C2)OCO4 (stereo not drawn), the Potency was inconclusive: 50.1 µM [inhibitor, partial curve].
In the case of CCOC(=O)c1ccc(NC(=S)N(CCCN2CCCC(C)C2)Cc2ccco2)cc1 (stereo not drawn), the Potency was inconclusive: 89.1 µM [inhibitor, single point].
In the case of COc1cccc2[nH]c(C(=O)NN)c(N)c12, the Potency was inconclusive: 50.1 µM [inhibitor, partial curve].
With O=C(/C(Br)=C/Nc1cc(Cl)ccc1Cl)C(F)(F)F the Potency was inconclusive: 89.1 µM [inhibitor, single point].
In the case of COc1ccc(CCNC(=O)[C@H](C)N2C(=O)N3CCc4c([nH]c5ccccc45)[C@@]3(C)C2=O)cc1OC, the Potency was inconclusive: 44.7 µM [inhibitor, partial curve].
For O=[N+]([O-])c1ccc2nc(NS(=O)(=O)c3ccc(Cl)cc3)sc2c1, the Potency was inconclusive: 70.8 µM [inhibitor, single point].
In the case of COc1cc(NC(=O)C/C(C)=N/NC(=O)C(=O)NCCO)c(OC)cc1Cl, the “activity change, negative = inhibition” value was inactive: -3.66%.
O=C(CSc1n[nH]c(-c2ccccn2)n1)Nc1ccccc1 was tested, and the Potency was inconclusive: 79.4 µM [inhibitor, single point].
COc1ccccc1C(=O)N1c2ccccc2C(C)(c2ccc(Cl)cc2)CC1(C)C (stereo not drawn) was tested, and the Potency was inconclusive: 89.1 µM [inhibitor, partial curve].
For COCCn1c(C)cc(C(=O)CSc2nncn2-c2ccccc2)c1C, the “activity change, negative = inhibition” value was inactive: -33%.
Oc1c(Cl)cc(Cl)c2c1NCCC2 was tested, and the Potency was inconclusive: 44.7 µM [inhibitor, partial curve].
For COc1ccc(OC)c(-n2nnnc2SCC(=O)O)c1, the Potency was inconclusive: 5.62 µM [inhibitor, full curve].
With CCC(=O)Nc1sc2c(c1C(=O)OC)CCN(Cc1ccccc1)C2 the “activity change, negative = inhibition” value was inactive: -33%.
CCCC(CCC)C(=O)Nc1nnc2n1CCS2 was tested, and the “activity change, negative = inhibition” value was inactive: -6.88%.
In the case of COCCNC(=O)C1CCN(Cc2cccc(OCc3ccccc3)c2)CC1, the Potency was inconclusive: 89.1 µM [inhibitor, single point].
O=C(Nc1nc(-c2ccccn2)cs1)c1ccc(Br)s1 was tested, and the Potency was active: 35.5 µM.
CC1CCCCC1NCC(=O)NCc1ccc(F)cc1 (stereo not drawn) was tested, and the Potency was active: 50.1 µM.
For CC(=N\NC(=O)c1ccccc1)/C(=N/O)C(=O)Nc1ccccc1, the Potency was active: 56.2 µM.
With Cc1ccc(O)c(/C=N/NC(=O)COc2ccc3c(C)cc(=O)oc3c2)c1 the Potency was inconclusive: 89.1 µM [inhibitor, single point].
With COc1ccc(CCN2C(=O)CN=C2Nc2ccc(F)cc2)cc1OC the Potency was inconclusive: 89.1 µM [inhibitor, single point].
In the case of COc1cc(NS(=O)(=O)c2ccc(NC(=S)NC(=O)/C=C/c3ccc(OC)c(OC)c3)cc2)ncn1, the Potency was active: 12.6 µM.
For Nn1c(Cc2cccc3ccccc23)nnc1SCc1ccc(Cl)c(Cl)c1, the “activity change, negative = inhibition” value was inactive: -32.9%.
CCOC(=O)c1c(C)oc2c1c(C=NCCC(=O)O)c(O)c1ccccc12 was tested, and the Potency was inconclusive: 79.4 µM [inhibitor, single point].
CCCC(=O)N(CCN1CCOCC1)c1nc2ccc(OCC)cc2s1 was tested, and the Potency was inconclusive: 79.4 µM [inhibitor, single point].
CCOC(=O)c1c(C)[nH]c(C)c1S(=O)(=O)N1CCCC(C(=O)Nc2ccc(C)c(N(C)C)c2)C1 (stereo not drawn) was tested, and the Potency was inconclusive: 79.4 µM [inhibitor, partial curve].
Cc1ccc(OCC(=O)N(Cc2ccco2)c2ccccn2)cc1 was tested, and the “activity change, negative = inhibition” value was inactive: -2.82%.
In the case of O=C(Cc1c(F)cccc1Cl)Nc1cccc(S(=O)(=O)NC2=NCCCCC2)c1, the “activity change, negative = inhibition” value was inactive: -1.12%.
With Cc1c(Cl)cccc1NC(=O)CSc1ncc(S(=O)(=O)c2ccc(C(C)C)cc2)c(=O)[nH]1 the Potency was inconclusive: 79.4 µM [inhibitor, single point].

From PubChem BioAssay AID504333 (National Center for Advancing Translational Sciences (NCATS), 2011)
Further: nearly all actives have a fitted effect of over 60% in size.
On the % scale 0 is the no-effect control and ±100 the full control effect; potency means the concentration at half of the fitted maximal effect; tags describe the fitted curve by direction and shape.
